In publication PMC10904736, “A c-di-GMP signaling module controls responses to iron in Pseudomonas aeruginosa” (Nature Communications, 2024):
These are yes or no findings as the source states them, for the method shown. For part of these data: Binding seen in cells or lysates may run through a third protein. Some binding calls cover weakened binding; strength is not graded here. For part of these data: Tags and fused reporters may be left off the sequences shown.

The chains behind the UniProt entries cited, without tags or fusion partners. Where a name states a change or a piece, a line headed by the entry shows the natural chain unless it says otherwise. Residues count along the entry.
UniProt Q9I243: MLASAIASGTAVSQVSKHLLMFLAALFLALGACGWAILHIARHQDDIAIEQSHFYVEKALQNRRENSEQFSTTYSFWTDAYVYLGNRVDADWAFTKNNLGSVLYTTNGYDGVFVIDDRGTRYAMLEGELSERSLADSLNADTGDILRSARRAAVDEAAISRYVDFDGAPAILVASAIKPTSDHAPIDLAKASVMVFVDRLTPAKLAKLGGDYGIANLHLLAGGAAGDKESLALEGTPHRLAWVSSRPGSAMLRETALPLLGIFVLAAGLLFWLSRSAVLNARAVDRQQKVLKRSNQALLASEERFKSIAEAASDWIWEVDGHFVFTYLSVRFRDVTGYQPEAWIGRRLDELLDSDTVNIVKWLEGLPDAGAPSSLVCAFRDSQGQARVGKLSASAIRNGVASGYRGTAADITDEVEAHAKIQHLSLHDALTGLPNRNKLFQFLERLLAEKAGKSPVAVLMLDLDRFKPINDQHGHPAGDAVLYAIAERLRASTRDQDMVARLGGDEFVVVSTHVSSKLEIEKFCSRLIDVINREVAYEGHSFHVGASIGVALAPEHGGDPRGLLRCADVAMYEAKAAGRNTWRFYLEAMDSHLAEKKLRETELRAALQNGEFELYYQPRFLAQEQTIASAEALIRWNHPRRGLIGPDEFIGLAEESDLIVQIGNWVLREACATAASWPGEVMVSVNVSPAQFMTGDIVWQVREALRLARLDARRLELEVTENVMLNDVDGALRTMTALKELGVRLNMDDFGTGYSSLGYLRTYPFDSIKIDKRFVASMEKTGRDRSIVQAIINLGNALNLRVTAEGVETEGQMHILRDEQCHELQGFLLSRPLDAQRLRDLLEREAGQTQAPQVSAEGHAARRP
CHASE4_PASPAC (IsmP^1-413), bacterial two-hybrid fusion: residues 1-413 of Q9I243

Assays:
[1] = target: IsmP (iron-sensing membrane protein, PA2072), full length, bacterial two-hybrid fusion (Pseudomonas aeruginosa PAO1) (UniProt Q9I243); experiment: two-hybrid; bacterial two-hybrid (BTH kit, EUROMEDEX): pKT25 and pUT18C plasmids in E. coli BTH101, LB agar with 1 mM IPTG and X-Gal, 30 °C, 24 h; blue colonies, β-galactosidase activity in Miller units
[2] = target: PA0847, bacterial two-hybrid fusion (Pseudomonas aeruginosa PAO1) (UniProt Q9I594); experiment: as above
[3] = target: CHASE4_PASPAC (IsmP^1-413), bacterial two-hybrid fusion (Pseudomonas aeruginosa PAO1) (UniProt Q9I243); experiment: as above
[4] = target: IsmP-Flag (Pseudomonas aeruginosa PAO1) (UniProt Q9I243); experiment: pull-down; IsmP-Flag co-expressed with ImcA-eGFP in PAO1; supernatant of lysate (50 mM Tris-HCl pH 8.0, 150 mM NaCl, 0.1% Triton X-100) with Flag beads 2 h at 4 °C; western blot
[5] = target: PA2072^His protein (purified IsmP) (Pseudomonas aeruginosa PAO1) (UniProt Q9I243); experiment: SEC; protein co-purification of IsmP and ImcA and SEC, in detergent DDM
[6] = target: PA2072^His protein (purified IsmP) (Pseudomonas aeruginosa PAO1) (UniProt Q9I243); experiment: MST; PA2072^His (100 nM) labelled by a His-tag labeling kit, PBST buffer; PA1851 protein (200 nM) serially diluted; NanoTemper Monolith NT.115, 100% LED power, high MST power; both purified

B1: ImcA (iron modulator of c-di-GMP A, PA1851), full length, bacterial two-hybrid fusion (protein, UniProt Q9I2P4 1-401)
chain: MLARDSLVQAGLPDNPYARQLRNGFRWLRFEKELENEFREFLSWNSLMQRRAAIGVAFLIWALFIVADWMMVDIRLHPSLFEQLLGVRLGMIGLLLVVWPAAFLPSLRKVGDAIAPYCLLLINLAVLACDVLFEWHGVPRFTQLGATLGILAVFFPLGLAFWACVRLALLCLALNLAVFLLFGGEENLRTNLLNTLYNGLVVLICSFALYLQDYAQREQFLGRRLLGMMAEQDSLTGLVNRRYYELLAQRALEQGAREEKGVALILVDVDDFKAYNDHYGHPAGDAALRQLGVVLRQGARRPLDIAARLGGEEFAVLLYDSEEGNTLAIAERLRQAVEALGIEHLGSSAGPCLTISLGVAYSTSGMGLDALYREADRALYEAKDAGRNAVRVAFRQHDRLE
- binding [1]: binds
- binding [2]: no binding
- binding [3]: binds

B2: ImcA-eGFP (protein, UniProt Q9I2P4 1-401)
chain: B1 chain
- binding [4]: binds

B3: PA1851 protein (purified ImcA) (protein, UniProt Q9I2P4 1-401)
chain: B1 chain
- binding [5]: binds
- binding [6]: binds
